In this assay the test system is KM20L2 colon. The assay can be described thus: NCI-60 one-dose screen, 48 h (100 = growth as untreated, 0 = no growth, -100 = all killed). The following applies: 2.5 mM. The procedure: Growth inhibition of the KM20L2 human tumor cell line is measured as a screen for anti-cancer activity. Cells are grown in 96 well plates and exposed to the test compound for 48 hours. Compounds are tested at a single concentration, which is 10^-5 M for most compounds. The reported endpoint is percent growth (GI% or GIPRCNT), where numbers from 0 - 100% represent growth inhibition, and numbers from -100% - 0 represent cell death. For example, a value of 40 represents 60% growth inhibition. A value of 0 means no net growth occurred over the course of the experiment. A value of -40 indicates 40% of cells at the beginning of the experiment died by the end of the experiment. A value of -100 means all cells are dead at the end of the experiment.
NCI-60 Human Tumor Cell Lines Screen was performed using the standard one-dose NCI protocol, which is described in more detail at https://dtp.cancer.gov/discovery_development/nci-60/default.htm.
Compounds with GIPRCNT values below 10 were considered active. Activity score was based on GIPRCNT using the following formula: […]
Score is 0 for GIPRCNT values of 100 or above, 50 for GIPRCNT values of 0, and 100 for GIPRCNT values of -100.

Results on one molecule are retold here after PubChem BioAssay AID1794797 (DTP/NCI, 2022).

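48-hour exposure, single concentration, 96-well plates; percent growth endpoint where 0 means no net growth. Active: below 10.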 Not every entry of the source has a single result; some have several. Only these are listed. An entry can have further records. These are repeated runs of one drug, at its own concentration, as given; each value is one run. Additions like (4×) give the number of equal values in this list.

Consider `O=c1[nH]cc(F)c(=O)[nH]1`, for which the growth is 14.3, 13.1, 20, 24.9, 10.1, 12.5, 21, 22.9, 21.9, 18.3, 14.9, 18.9 (2×), 25.8, 32.5, 2.61, 17.1% (runs of 1991) and 11.2, 9.83, 14.5 (3×), 15.1 (2×), 9.85 (2×), 17, 7.12, 23.8, 22.3, 33, 11.5, 22.5, 23 (2×), 16.9, 28.8, 29.7, 18.4 (2×), 10.2, 24, 12.4, 5.4, 20.8, 21.2, 15.7, 5.27, 18.1, 19.7, 19.5, 18.3 (4×), 11.1, 4.57, 24.5, 25.3, 2.01, -17.2, 17.9, 9.94, 17.3, 17.5, 19.1 (2×), 11.8, 3.23, -25.2, 28.7, 4.24, 13.8, 18.9 (2×), 17.6, 25.5, 16, 9.22, 12.1, 5.96, 18, 32.5, 21.1, 27.6, 18.5, 7.45, 122, 13, 10.8, 21.8, 23.5, 9.62, 14.7, -19.8, 6.62, 7.56, 24.4, 12.3, -0.277% (runs of 1992).
